B1: hisS L240A (protein)
chain: MAKNIQAIRGMNDYLPGETAIWQRIEGTLKNVLGSYGYSEIRLPIVEQTPLFKRAIGEVTDVVEKEMYTFEDRNGDSLTLRPEGTAGCVRAGIEHGLLYNQEQRLWYIGPMFRHERPQKGRYRQFHQLGCEVFGLQGPDIDAELIMLTARWWRALGISEHVTLELNSIGSLEARANYRDALVAFLEQHKEKLDEDCKRRMYTNPLRVLDSKNPEVQALLNDAPALGDYLDEESREHFAGACKLLESAGIAYTVNQRLVRGLDYYNRTVFEWVTNSLGSQGTVCAGGRYDGLVEQLGGRATPAVGFAMGLERLVLLVQAVNPEFKADPVVDIYLVASGADTQSAAMALAERLRDELPGVKLMTNHGGGNFKKQFARADKWGARVAVVLGESEVANGTAVVKDLRSGEQTAVAQDSVAAHLRTLLG
B2: hisS L240W (protein)
chain: B1 chain with A240W
B3: hisS L240Q (protein)
chain: B1 chain with A240Q
B4: hisI V23A (protein)
chain: MLTEQQRRELDWEKTDGLMPVIAQHAVSGEVLMLGYMNPEALDKTLESGKVTFFSRTKQRLWTKGETSGNFLNVVSIAPDCDNDTLLVLANPIGPTCHKGTSSCFGDTAHQWLFLYQLEQLLAERKSADPETSYTAKLYASGTKRIAQKVGEEGVETALAATVHDRFELTNEASDLMYHLLVLLQDQGLDLTTVIENLRKRHQ
B5: hisI F54A (protein)
chain: B4 chain with A23V, F54A
B6: hisI F54Q (protein)
chain: B4 chain with A23V, F54Q
B7: hisI V23W (protein)
chain: B4 chain with A23W
B8: hisI W112Q (protein)
chain: B4 chain with A23V, W112Q
B9: hisI V23D (protein)
chain: B4 chain with A23D
B10: hisI F54W (protein)
chain: B4 chain with A23V, F54W
B11: hisI V23Q (protein)
chain: B4 chain with A23Q
B12: hisI F114W (protein)
chain: B4 chain with A23V, F114W
B13: hisI F54D (protein)
chain: B4 chain with A23V, F54D
B14: argH L339A (protein)
chain: MALWGGRFTQAADQRFKQFNDSLRFDYRLAEQDIVGSVAWSKALVTVGVLTAEEQAQLEEALNVLLEDVRARPQQILESDAEDIHSWVEGKLIDKVGQLGKKLHTGRSRNDQVATDLKLWCKDTVSELLTANRQLQSALVETAQNNQDAVMPGYTHLQRAQPVTFAHWCLAYVEMLARDESRLQDALKRLDVSPLGCGALAGTAYEIDREQLAGWLGFASATRNSLDSVSDRDHVLELLSAAAIGMVHLSRFAEDLIFFNTGEAGFVELSDRVTSGSSLMPQKKNPDALELIRGKCGRVQGALTGMMMTLKGLPLAYNKDMQEDKEGLFDALDTWLDCAHMAALVLDGIQVKRPRCQEAAQQGYANATELADYLVAKGVPFREAHHIVGEAVVEAIRQGKPLEDLPLSELQKFSQVIDEDVYPILSLQSCLDKRAAKGGVSPQQVAQAIAFAQARLG
B15: argH L339W (protein)
chain: B14 chain with A339W
B16: argH L339Q (protein)
chain: B14 chain with A339Q

Numbering of substitutions follows the chain as printed. Names and notes keep the numbering of the source. ± gives the standard deviation of the averaged measurements. Laboratory Escherichia coli strains with one amino-acid change in an essential protein, pooled on minimal glucose agar with carbenicillin or gentamicin at twice the control MIC (plus kanamycin and chloramphenicol for the plasmids), 48 h. Fold change of barcode share against drug-free plates; higher = less susceptible. Active = above 20 in both replicates (the paper's putatively resistant). '<' = one read or none on drug, '>' = one read or none on a drug-free plate. Shares are relative, so most strains fall below 1 when a few take over. Listed are strains with at least 15 reads on both drug-free plates, and hits; most hits rest on fewer reference reads. Replicate rank correlation about 0.5. Edits are read from barcodes. Some results are limits rather than exact numbers.

One series has as its target Escherichia coli (laboratory strain). Kind of series: barcode share on antibiotic plates over drug-free plates; higher = less susceptible. The settings on record: antibiotic: carbenicillin; 2× MIC (3.1 µg/mL). The procedure:
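A pool of E. coli strains, each edited to carry one amino-acid change in an essential protein, was grown for 48 h on minimal glucose agar with or without antibiotic; strain barcodes were sequenced; mean of two replicates.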
With B1, the “fold change of barcode share” value was 0.358 ± 0.095. Still for that read-out and setting: the value for B2 was 0.412 ± 0.28. B3: the “fold change of barcode share” value is 0.553 ± 0.24.

On to B4, for which the “fold change of barcode share” value came out at 1.09 ± 0.35. On the same count and under the same terms, the result for B5 reads 0.474 ± 0.0099. In the case of B6, the “fold change of barcode share” value was 0.424 ± 0.098. Still for that read-out and setting: the value for B7 was 2.15 ± 0.74; that for B8 was 0.787 ± 0.071; that for B9 was 1.01 ± 0.12.

In the case of B10, the “fold change of barcode share” value amounted to 0.487 ± 0.12. On the same count and under the same terms, the result for B11 reads 1.4 ± 0.33. For the protein B12, the “fold change of barcode share” value came out at 0.951 ± 0.25. In the case of B13, the “fold change of barcode share” value is 0.393 ± 0.0099. In the case of B14, the “fold change of barcode share” value was determined as 1.42 ± 0.66. With B15, the “fold change of barcode share” value was determined as 0.999 ± 0.23. On the same count and under the same terms, the result for B16 reads 0.443 ± 0.09.

The same series, now with this note: antibiotic: gentamicin; 2× MIC (MIC 0.45 µg/mL).
For B1, the “fold change of barcode share” value stood at 0.00368 ± 0.0014. B2: the “fold change of barcode share” value is under 0.00333. Take B3: the “fold change of barcode share” value stood at 0.00533 ± 0.0012. Regarding B4, the “fold change of barcode share” value was 0.0124 ± 0.0015. On to B5, for which the “fold change of barcode share” value stood at 0.00904 ± 0.0072. In the case of B6, the “fold change of barcode share” value was under 0.0047. The same measure, in the same setting: the result for B7 reads 0.0155 ± 0.0058; that for B8, 0.0109 ± 0.012.

B9: the “fold change of barcode share” value is 0.0284 ± 0.02.

For B10, the “fold change of barcode share” value turned out to be 0.0178 ± 0.011. In the case of B12, the “fold change of barcode share” value is 0.0494 ± 0.055. Consider B13, for which the “fold change of barcode share” value worked out at 0.014 ± 0.0047. On the same count and under the same terms, the result for B14 reads 0.0103 ± 0.0046; that for B15, 0.0179 ± 0.0028. Same read-out and setting: the value for B16 was 0.00817 ± 0.0062.

For the origin of these results see the supplement of paper PMC11876631.
